From the antibiotic and cytotoxicity screens of Wong et al. (2023) come the findings set out here.

The subject of one assay is HSkMC. The experiment in a line: cytotoxicity call (relative viability < 0.9). To be noted: 10 µM.
The next assay relates to HepG2. Put plainly: cytotoxicity call (relative viability < 0.9). To be noted: 10 µM.
In a further assay the test system is S. aureus RN4220. Put plainly: growth inhibition call (relative growth <= 0.2). To be noted: 50 µM.

This is one part of the list.

For `COc1ccc(S(=O)(=O)N(C)C[C@@H]2Oc3c(NC(=O)c4ccncc4)cccc3C(=O)N([C@@H](C)CO)C[C@@H]2C)cc1`, the cytotoxicity call with HSkMC and in the assay on HepG2 was “inactive” throughout. For the same molecule, the growth inhibition call with S. aureus RN4220 was “inactive”.

For the molecule `CCOc1nc2cccc(C(=O)OC(C)OC(=O)OC3CCCCC3)c2n1Cc1ccc(-c2ccccc2-c2nnn[nH]2)cc1` (centres undefined), the cytotoxicity call with HSkMC and in the assay on HepG2 was “inactive” throughout. Also, the growth inhibition call in the assay on S. aureus RN4220 is “inactive”.

`C[C@H]1CN([C@@H](C)CO)C(=O)Cc2cc(NS(=O)(=O)c3ccccc3)ccc2O[C@@H]1CN(C)S(=O)(=O)c1ccccc1`: the cytotoxicity call with HSkMC and in the assay with HepG2 was “inactive” each time. Moreover, the growth inhibition call in the assay with S. aureus RN4220 was “inactive”.

As for `C[C@@H]1CN([C@@H](C)CO)C(=O)c2cccc(NS(=O)(=O)c3ccc(F)cc3)c2O[C@@H]1CN(C)Cc1ccc(Oc2ccccc2)cc1`, in the assay on HSkMC, the cytotoxicity call was “inactive”. Moreover, the cytotoxicity call in the assay on HepG2 is “active”. Also, in the assay with S. aureus RN4220, the growth inhibition call is “inactive”.

As for `COc1ccc(NC(=O)Nc2ccc3c(c2)CC(=O)N([C@@H](C)CO)C[C@@H](C)[C@@H](CN(C)S(C)(=O)=O)O3)cc1`, the cytotoxicity call with HSkMC and in the assay on HepG2 was “inactive” throughout. Besides, the growth inhibition call in the assay on S. aureus RN4220 is “inactive”.

For `C[C@@H]1CN([C@@H](C)CO)C(=O)Cc2cc(NC(=O)Cn3cnnn3)ccc2O[C@@H]1CN(C)Cc1ccc(Oc2ccccc2)cc1`, the cytotoxicity call in the assay with HSkMC and in the assay on HepG2 was “inactive” each time. The growth inhibition call in the assay on S. aureus RN4220 was “inactive”.

With `CO[C@@H]1CN(C)C(=O)c2ccc(NC(=O)NC(C)C)cc2OC[C@@H](C)N(Cc2ccc(-c3ccccn3)cc2)C[C@H]1C`, the cytotoxicity call in the assay on HSkMC and in the assay with HepG2 was “inactive” throughout. The growth inhibition call in the assay with S. aureus RN4220 is “inactive”.

As for `CO[C@@H]1CC[C@@H]2[C@H]1OCCN2C(=O)N(C)C`, the cytotoxicity call in the assay on HSkMC and in the assay on HepG2 was “inactive” in each case. Further, the growth inhibition call in the assay with S. aureus RN4220 is “inactive”.

In the case of `CC(C)NC(=O)Nc1cccc2c1O[C@H](CN(C)S(=O)(=O)c1ccc(F)cc1)[C@@H](C)CN([C@@H](C)CO)C2=O`, the cytotoxicity call in the assay with HSkMC and in the assay on HepG2 was “inactive” in each case. Besides, the growth inhibition call in the assay on S. aureus RN4220 is “inactive”.

With `COCC(=O)N(C)C[C@H]1Oc2cc(C#C[C@H](C)O)ccc2S(=O)(=O)N([C@H](C)CO)C[C@H]1C`, the cytotoxicity call with HSkMC and in the assay with HepG2 was “inactive” in each case. The growth inhibition call with S. aureus RN4220 is “inactive”.

Consider `Cn1c(-c2ccccc2)c[nH]c1=S`, for which the cytotoxicity call in the assay on HSkMC (human skeletal muscle cells) and in the assay on HepG2 was “inactive” each time. The growth inhibition call with S. aureus RN4220 is “inactive”.

Consider `C[C@H]1CN([C@@H](C)CO)S(=O)(=O)c2ccc(C#CCN(C)C)cc2O[C@H]1CN(C)Cc1ccccn1`, for which the cytotoxicity call with HSkMC and in the assay on HepG2 was “inactive” throughout. The growth inhibition call in the assay with S. aureus RN4220 was “inactive”.

As for `O=C(CCCCCNC(=O)OC[C@]12N=C3SCC(=O)N3[C@H](c3ccccc3O1)[C@H]2COC(=O)c1ccccc1)NO`, the cytotoxicity call with HSkMC and with HepG2 was “inactive” each time. Also, the growth inhibition call in the assay on S. aureus RN4220 is “inactive”.
